{
  "source": "PubChem BioAssay AID1460",
  "about": "(National Center for Advancing Translational Sciences (NCATS), 2008)",
  "note": "Where “and” joins values, the source holds several entries; their conditions need not be identical. Identical values can stand only once. Among all 270,000 compounds or so, about 5,800 (2.1%) were called active. The inconclusive results got no clear call from the source; some entries with a clear call stand among them for comparison. Calls follow the shape of the dose curve; as a rule, active = well fitted inhibition curve with a large enough effect; inconclusive = small, poorly fitted or top-dose-only effect; inactive = flat fitted curve, though single readings scatter. Potencies of inconclusive entries are doubtful fits and often do not repeat. % is scaled to controls: 0 for no effect and ±100 for the full control effect; potency is read from the fitted curve at half-maximal effect; tags tell the direction and shape of the fitted curve.",
  "data": [
    {"target": "Microtubule-associated protein tau (Homo sapiens) (UniProt P10636)", "sequence (P10636 whole entry, looked up, the tested form may be a part)": "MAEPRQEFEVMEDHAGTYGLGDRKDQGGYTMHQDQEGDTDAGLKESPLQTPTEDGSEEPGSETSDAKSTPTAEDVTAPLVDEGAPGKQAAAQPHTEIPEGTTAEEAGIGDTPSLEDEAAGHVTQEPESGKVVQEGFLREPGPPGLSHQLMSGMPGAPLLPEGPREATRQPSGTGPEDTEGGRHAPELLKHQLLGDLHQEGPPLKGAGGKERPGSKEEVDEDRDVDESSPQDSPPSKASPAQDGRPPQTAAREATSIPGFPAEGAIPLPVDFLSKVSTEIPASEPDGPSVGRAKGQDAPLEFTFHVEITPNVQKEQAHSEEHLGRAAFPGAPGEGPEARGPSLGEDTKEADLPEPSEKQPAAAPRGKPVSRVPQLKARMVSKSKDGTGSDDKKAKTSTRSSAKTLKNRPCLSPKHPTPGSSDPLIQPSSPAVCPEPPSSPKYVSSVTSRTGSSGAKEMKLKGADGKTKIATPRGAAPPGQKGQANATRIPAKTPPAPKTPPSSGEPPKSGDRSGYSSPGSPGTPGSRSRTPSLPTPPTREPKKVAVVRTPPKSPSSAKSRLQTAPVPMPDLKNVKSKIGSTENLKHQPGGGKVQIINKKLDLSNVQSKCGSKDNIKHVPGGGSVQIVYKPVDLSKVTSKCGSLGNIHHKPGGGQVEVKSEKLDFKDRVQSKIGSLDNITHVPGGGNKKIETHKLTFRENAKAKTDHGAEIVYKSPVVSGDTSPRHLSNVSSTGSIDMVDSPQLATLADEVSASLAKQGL", "test": "qHTS for Inhibitors of Tau Fibril Formation, Thioflavin T Binding; also: nearly all actives have a fitted effect of over 55% in size", "details": "recombinant tau K18 P301L (four-repeat tau fragment), heparin-induced fibrillization, ThT fluorescence; series mostly up to 57.4 µM; activity, negative = inhibition: at the top concentration", "in_short": "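Tau K18 P301L fragment (15 uM unlabeled plus 0.24 uM Alexa 594-labeled) in 100 mM sodium acetate pH 7 with compound, fibrillization induced by 20 uM heparin for 6 hr at 37 C. Thioflavin T (30 uM) added, fluorescence read after 1 hr (ex 450, em 510 nm).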", "values": [
      {"smiles": "Cn1cc(/C=N/NC(=O)COc2ccccc2[N+](=O)[O-])c2ccccc21", "Potency": "inconclusive: 25.1 µM [inhibitor, single point]"},
      {"smiles": "Cc1ccc(-n2nc(C)c(C(=O)NCCCN3CCN(c4cccc(Cl)c4)CC3)c2-n2cccc2)cc1", "Potency": "inconclusive: 17.8 µM [inhibitor, single point]"},
      {"smiles": "CCc1ccccc1NC(=O)C1CCN(c2nc3ccccc3[nH]2)CC1", "activity, negative = inhibition": "inactive: -5.3%"},
      {"smiles": "Cc1ccc(S(=O)(=O)N(C)CC(=O)N2CCN(C(=O)c3ccco3)CC2)cc1", "activity, negative = inhibition": "inactive: -8.88%"},
      {"smiles": "CC(C)(C)C1=CC(=Nc2ccccc2N)C=C(C(C)(C)C)C1=O", "activity, negative = inhibition": "inactive: 10.8%"},
      {"smiles": "Cc1ccc(C)c2c1[nH]c1ccccc12", "Potency": "inconclusive: 20 µM [inhibitor, partial curve, poor fit]"},
      {"smiles": "COc1cccc(CNC(=O)CCc2c(C)nc3c4c(C)cc(C)nc4nn3c2C)c1", "Potency": "inconclusive: 3.98 µM [inhibitor, full curve]"},
      {"smiles": "C/C(=N\\NC(=O)c1n[nH]c2c1CCC2)c1cccs1", "Potency": "inconclusive: 0.708 µM [inhibitor, full curve]"},
      {"smiles": "COCc1c(N)c(C)nc(Cl)c1C#N", "Potency": "inconclusive: 10 µM [inhibitor, partial curve]"},
      {"smiles": "CCOc1ccc(OCc2ccc(C(=O)NN)o2)cc1", "Potency": "inconclusive: 11.2 µM [inhibitor, partial curve, poor fit]"},
      {"smiles": "COC(=O)N1CC=CC1(C)C(=O)NCc1ccc(C)o1", "note": "(centres undefined)", "Potency": "active: 22.4 µM"},
      {"smiles": "COc1ccc(C(=O)NCc2nc(-c3cccc(C)c3)no2)cc1OC", "activity, negative = inhibition": "inactive: -10.3%"},
      {"smiles": "COc1cccc(-c2csc(N3CCN(C(=O)NC45CC6CC(CC(C6)C4)C5)CC3)n2)c1", "Potency": "inconclusive: 11.2 µM [inhibitor, partial curve]"},
      {"smiles": "O=C(CCCSc1nnnn1-c1cccc2ccccc12)c1ccc(F)cc1", "activity, negative = inhibition": "inactive: 7.3%"},
      {"smiles": "COc1cccc(NC(=O)/C(C#N)=C/c2ccc(-c3ccc(C)cc3)o2)c1", "Potency": "inconclusive: 0.891 µM [inhibitor, full curve]"},
      {"smiles": "O=C(NCc1ccco1)c1ccccc1F", "Potency": "inconclusive: 28.2 µM [inhibitor, single point]"},
      {"smiles": "CC(C)CCNC(=O)C1CC(c2ccccc2C(F)(F)F)=NO1", "note": "(centres undefined)", "activity, negative = inhibition": "inactive: 15.8%"},
      {"smiles": "Cc1ccc2cc3cc(C(=O)N4CCN(c5ccccc5)CC4)sc3nc2c1", "activity, negative = inhibition": "inactive: -6.5%"},
      {"smiles": "O=C(Cn1cnc2c(nnn2Cc2ccc(F)cc2)c1=O)N1CCN(c2ccccc2)CC1", "Potency": "inconclusive: 0.126 µM [inhibitor, full curve, poor fit]"},
      {"smiles": "Cc1nc2cc(NCc3nc4ccccc4n3Cc3ccccc3)ccc2n1C", "Potency": "inconclusive: 20 µM [inhibitor, partial curve]"},
      {"smiles": "O=[N+]([O-])c1ccc(-c2nc(-c3cccs3)c(-c3cccs3)[nH]2)cc1", "Potency": "active: 5.62 µM"},
      {"smiles": "COC(=O)NC(/C=C/c1ccco1)[C@@]1(C(=O)OC)CCCC1=O", "note": "(some centres undefined)", "Potency": "inconclusive: 6.31 µM [inhibitor, partial curve, poor fit]"},
      {"smiles": "CCOc1cc(-c2ccc3c(c2)OCO3)cc(=O)c2c(C)oc(C)c12", "Potency": "inconclusive: 31.6 µM [inhibitor, partial curve]"},
      {"smiles": "Cc1ccccc1Cn1nc(C)c(NC(=O)c2cc3nc(-c4ccco4)cc(C(F)(F)F)n3n2)c1C", "Potency": "inconclusive: 31.6 µM [inhibitor, partial curve]"},
      {"smiles": "COc1ccc(-c2nc(CS(=O)CC(=O)NCc3ccc4c(c3)OCO4)c(C)o2)cc1", "note": "(centres undefined)", "Potency": "inconclusive: 35.5 µM [inhibitor, single point]"},
      {"smiles": "CCOC(=O)c1sc2nc(CC(=O)OC)nc(N3CCN(c4ccc(OC)cc4)CC3)c2c1C", "Potency": "inconclusive: 12.6 µM [inhibitor, single point]"},
      {"smiles": "O=C1NNC(c2ccccc2)=N/C1=C\\c1ccccc1", "activity, negative = inhibition": "inactive: -25.9%"},
      {"smiles": "CCCC(=O)Nc1nc2ccc(C(=O)OCC)cc2s1", "activity, negative = inhibition": "inactive: 8.8%"},
      {"smiles": "Cc1nc(C2CCC3C4CCC5=CC(=O)CC[C@]5(C)C4CC[C@]23C)cs1", "note": "(some centres undefined)", "Potency": "inconclusive: 35.5 µM [inhibitor, single point]"},
      {"smiles": "Cc1ccc(Cn2cc(CCC(=O)NCC(C)c3ccccc3)c3ccccc32)cc1", "note": "(centres undefined)", "Potency": "inconclusive: 2.51 µM [inhibitor, single point]"},
      {"smiles": "CCOC(=O)c1c(C)n(C)c2ccc(OCC(O)Cn3nc(C)c(Br)c3C)cc12", "note": "(centres undefined)", "Potency": "inconclusive: 25.1 µM [inhibitor, single point]"},
      {"smiles": "Cc1ccccc1NC(=O)CN1C(=O)S/C(=C\\c2ccc(-c3cccc(C(=O)O)c3C)o2)C1=O", "activity, negative = inhibition": "inactive: 3.59%"},
      {"smiles": "O=C(c1cccc(Cl)c1)N1CCC(=O)N(C(COCc2cccc(Cl)c2)Cc2ccccc2)CC1", "note": "(centres undefined)", "Potency": "inconclusive: 31.6 µM [inhibitor, single point]"},
      {"smiles": "COCCn1c(C)cc(O)c(C(c2ccccc2F)N2CCN(c3ccccc3)CC2)c1=O", "note": "(centres undefined)", "Potency": "inconclusive: 28.2 µM [inhibitor, single point]"},
      {"smiles": "COc1ccc(Cl)cc1NC(=S)NCc1ccccn1", "activity, negative = inhibition": "inactive: -12.2%"},
      {"smiles": "COc1ccccc1CCNC(=O)C(=O)NCC(c1cccnc1)N1CCN(c2ccccc2)CC1", "note": "(centres undefined)", "activity, negative = inhibition": "inactive: 4.37%"},
      {"smiles": "Cc1ccc(OCC(=O)NNC(=S)NCc2ccccc2)cc1", "Potency": "inconclusive: 14.1 µM [inhibitor, partial curve]"},
      {"smiles": "O=C1NC(=S)S/C1=C\\c1ccc(SCc2ccccc2)o1", "Potency": "active: 10 µM"},
      {"smiles": "COCCn1c(C)cc(O)c(C(c2ccccc2Cl)N2CCCCC2)c1=O", "note": "(centres undefined)", "Potency": "inconclusive: 28.2 µM [inhibitor, single point]"},
      {"smiles": "N=C(C[C@@H](O)COc1ccccc1-c1ccccc1)N1CCCCC1", "activity, negative = inhibition": "inactive: -14%"},
      {"smiles": "CN1CCN(C2=Cc3ccccc3Oc3ccc(Cl)cc32)CC1", "Potency": "inconclusive: 31.6 µM [inhibitor, partial curve] and inconclusive: 20 µM [inhibitor, single point]"},
      {"smiles": "O=C(CN(Cc1ccc(Cl)c(Cl)c1)S(=O)(=O)c1ccccc1)N/N=C\\c1ccc2c(c1)OCO2", "activity, negative = inhibition": "inactive: -10%"},
      {"smiles": "O=C(Cc1coc2ccc3ccccc3c12)N1CCN(c2ncccn2)CC1", "Potency": "inconclusive: 39.8 µM [inhibitor, single point]"},
      {"smiles": "O=C(Nc1ccc(-c2nc3ncccc3o2)cc1)c1ccc(Br)o1", "Potency": "inconclusive: 0.562 µM [inhibitor, full curve, poor fit]"}
    ]}
  ]
}
